Measurements taken from the supplement of paper PMC4967469.
A lower IC50 marks a more sensitive line; a fit beyond the top or the lowest dose is shown as a bound at that dose. For AUC the same curve is integrated over the 256-fold range of doses and scaled to a fraction; it is 1 without any effect and falls as sensitivity rises. For some assays here: An inferred top dose was calculated from the reported fits.

What was measured:
Experiment in all cases: Viability of human cancer cell lines after 72 h of drug (GDSC screen)
[1] = compound: CC(C)(C)c1nc(-c2cccc(NS(=O)(=O)c3c(F)cccc3F)c2F)c(-c2ccnc(N)n2)s1 [Dabrafenib]; details: top dose 10 µM
Description: (§1)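 Human cancer cell lines in 384-well plates, medium with 10% serum, drug for 72 h over a 256-fold dose range (nine 2-fold or five 4-fold steps up to the top dose). Adherent lines were fixed and stained with the nucleic acid dye Syto60, suspension lines read with resazurin; signal relative to control wells, capped at 0 and 100%. One two-parameter sigmoid per drug and line, fitted in a mixed model over all curves with the slope shared within a line.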

[2] = compound: O=C(CCCCCCC(=O)Nc1ccccc1)NO [Vorinostat]; details: top dose 10 µM
Description: as §1

[3] = compound: CCc1c2c(nc3ccc(O)cc13)-c1cc3c(c(=O)n1C2)COC(=O)[C@]3(O)CC [SN-38]; details: top dose 0.05 µM; top dose inferred
Description: as §1

[4] = compound: CNC(=O)c1ccccc1Sc1ccc2c(/C=C/c3ccccn3)n[nH]c2c1 [Axitinib]; details: top dose 2 µM
Description: as §1

[5] = compound: CN(Cc1cnc2nc(N)nc(N)c2n1)c1ccc(C(=O)N[C@@H](CCC(=O)O)C(=O)O)cc1 [Methotrexate]; details: top dose 0.2 µM
Description: as §1

Cell Line	AUC [1]	IC50 [1] [nM]	AUC [2]	IC50 [2] [nM]	AUC [3]	IC50 [3] [nM]	AUC [4]	IC50 [4] [nM]	AUC [5]	IC50 [5] [nM]
SW1573 (lung adenocarcinoma, adherent)	0.907	> 10000	0.745	4130	0.574	5.32	0.925	> 2000	0.972	> 200
SW1710 (bladder, adherent)	0.866	9370	0.833	6730	0.76	18.1	0.947	> 2000	0.973	> 200
SW1783 (glioma, adherent)	0.99	> 10000	0.912	> 10000	0.646	7.57	0.991	> 2000	0.99	> 200
T-T (oesophagus, adherent)	0.922	> 10000	0.617	1310	0.695	11	0.939	> 2000	0.94	> 200
TC-YIK (cervix, suspension)	0.967	> 10000	0.604	1160	0.344	1.23	0.91	> 2000	0.701	42
TE-4 (oesophagus, adherent)	0.952	> 10000	0.512	673	0.758	17.2	0.946	> 2000	0.937	> 200
TE-5 (oesophagus, adherent)	0.982	> 10000	0.803	5850	0.546	4.26	0.974	> 2000	0.968	> 200
TE-6 (oesophagus, adherent)	0.972	> 10000	0.777	4730	0.975	> 50	0.976	> 2000	0.979	> 200
TE-8 (oesophagus, adherent)	0.911	> 10000	0.713	2630	0.59	5.63	0.978	> 2000	0.982	> 200
TE-9 (oesophagus, adherent)	0.978	> 10000	0.867	9580	0.683	10.4	0.974	> 2000	0.967	> 200
TE-11 (oesophagus, adherent)	0.976	> 10000	0.8	4340	0.707	11.3	0.944	> 2000	0.964	> 200
TE-12 (oesophagus, suspension)	0.961	> 10000	0.745	3740	0.903	> 50	0.962	> 2000	0.856	> 200
TE-15 (oesophagus, suspension)	0.965	> 10000	0.68	2130	0.887	> 50	0.983	> 2000	0.963	> 200
TGBC1TKB (biliary tract, adherent)	0.987	> 10000	0.88	> 10000	0.874	48.2	0.989	> 2000	0.976	> 200
TGBC11TKB (stomach, adherent)	0.974	> 10000	0.72	2400	0.879	40.9	0.968	> 2000	0.959	> 200
TGW (neuroblastoma, adherent)	0.988	> 10000	0.556	871	0.933	> 50	0.911	> 2000	0.654	31.2
TK (B-cell lymphoma, suspension)	0.979	> 10000	0.627	1350	0.582	5.12	0.99	> 2000	0.749	59.8
TOV-112D (ovary, adherent)	0.861	8600	0.57	969	0.618	6.61	0.937	> 2000	0.912	> 200
TT2609-C02 (thyroid, adherent)	0.956	> 10000	0.63	1460	0.803	26.7	0.859	1840	0.866	199
TT (thyroid, adherent)	0.913	> 10000	0.641	1790	0.842	> 50	0.908	> 2000	0.977	> 200
TUR (B-cell lymphoma, suspension)	0.915	> 10000	0.541	799	0.617	6.39	0.852	1370	0.378	5.93
U-118-MG (glioma, adherent)	0.945	> 10000	0.886	> 10000	0.563	4.77	0.955	> 2000	0.97	> 200
U-698-M (B-cell leukaemia, suspension)	0.978	> 10000	0.592	1110	0.806	25.4	0.953	> 2000	0.443	8.73
UM-UC-3 (bladder, adherent)	0.952	> 10000	0.789	4110	0.578	5.03	0.946	> 2000	0.987	> 200
UMC-11 (lung carcinoid, adherent)	0.965	> 10000	0.799	4200	0.955	> 50	0.937	> 2000	0.987	> 200
UWB1.289 (ovary, adherent)	0.928	> 10000	0.804	8360	0.652	10.3	0.97	> 2000	0.959	> 200
